Experimental data as given in publication PMC4336329 (PLoS ONE, 2015).
About 14,000 (4.5%) of roughly 310,000 compounds showed an effect of 50% or more. Effects have a minus sign here. Some of the results follow.

biological target: human ether-à-go-go-related gene (hERG) potassium channel (human, UniProt Q12809); assay: primary screen, population patch clamp on CHO cells stably expressing hERG
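Note: peak tail current of the secondary pulse compared with the same well before compound.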

human ether-à-go-go-related gene (hERG) potassium channel, sequence (Q12809 whole entry, looked up): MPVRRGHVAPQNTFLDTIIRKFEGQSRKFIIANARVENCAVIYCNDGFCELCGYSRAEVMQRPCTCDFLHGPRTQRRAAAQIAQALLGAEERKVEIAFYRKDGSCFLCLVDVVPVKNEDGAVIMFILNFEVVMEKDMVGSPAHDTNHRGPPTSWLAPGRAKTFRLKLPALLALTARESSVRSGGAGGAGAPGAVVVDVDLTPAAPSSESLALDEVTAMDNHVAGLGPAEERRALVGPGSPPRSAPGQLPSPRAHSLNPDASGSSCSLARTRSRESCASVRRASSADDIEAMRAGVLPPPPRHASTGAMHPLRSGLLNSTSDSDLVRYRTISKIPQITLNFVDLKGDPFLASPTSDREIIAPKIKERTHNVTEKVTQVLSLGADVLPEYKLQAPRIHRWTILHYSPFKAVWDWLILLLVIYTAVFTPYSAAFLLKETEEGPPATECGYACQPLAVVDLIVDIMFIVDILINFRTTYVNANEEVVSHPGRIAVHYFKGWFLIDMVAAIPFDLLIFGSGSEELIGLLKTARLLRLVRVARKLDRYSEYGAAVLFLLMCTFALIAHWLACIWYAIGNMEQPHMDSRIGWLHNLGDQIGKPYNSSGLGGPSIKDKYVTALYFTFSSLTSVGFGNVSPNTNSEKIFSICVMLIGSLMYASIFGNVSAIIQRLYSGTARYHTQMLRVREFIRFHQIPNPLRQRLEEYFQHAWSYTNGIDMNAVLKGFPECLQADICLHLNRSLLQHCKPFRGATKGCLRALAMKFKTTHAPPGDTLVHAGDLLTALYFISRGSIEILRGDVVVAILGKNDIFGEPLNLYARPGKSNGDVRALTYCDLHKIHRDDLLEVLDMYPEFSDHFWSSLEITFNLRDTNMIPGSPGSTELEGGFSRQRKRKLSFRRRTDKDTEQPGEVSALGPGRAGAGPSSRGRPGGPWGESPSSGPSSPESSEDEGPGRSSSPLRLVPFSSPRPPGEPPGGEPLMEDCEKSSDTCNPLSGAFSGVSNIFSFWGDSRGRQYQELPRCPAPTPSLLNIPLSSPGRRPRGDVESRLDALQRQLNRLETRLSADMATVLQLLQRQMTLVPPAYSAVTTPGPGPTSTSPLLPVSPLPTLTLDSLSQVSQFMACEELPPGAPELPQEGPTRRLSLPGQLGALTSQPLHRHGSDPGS

Row | Structure (SMILES) | hERG current change (%, negative = inhibition) at 10uM [%]
1 | CC(C)Cn1[nH]c2c3c(ccc2c1=O)C(=O)c1ccccc1C3=O | -12.1
2 | COC1=C(Nc2ccccc2)C(=O)c2ccccc2C1=O | -0.627
3 | CCOC(CNC(=O)c1ccc2nc(N3CCC(C)CC3)sc2c1)OCC | 10.6
4 | O=C(CCc1ccccc1)N/N=C/c1cc(Br)ccc1O | 11.7
5 | NC1=NC[C@H](Cc2ccc(O)cc2)N1CCc1cccc2ccccc12 | -4.14
6 | Cc1ccc(S(=O)(=O)Nc2ccc(NC(=O)c3cccnc3)cc2)cc1 | -18.1
7 | O=C(c1[nH]ncc1-c1ccccc1)C1CO1 (centres unmarked) | 16.1
8 | CN1CCN(c2ccccc2/C=C2/C(=O)Nc3ccccc32)CC1 | -36.3
9 | CCOC(=O)c1ccc(-n2cccc2/C=C2\NC(=O)NC2=O)cc1 | 16.3
10 | COc1cccc2cc(C(=O)C3=C(O)C(=O)N(CCN4CCOCC4)C3c3ccc(C)o3)oc12 (centres unmarked) | -0.475
11 | CN1CCN(c2nc3c(c(=O)[nH]c(=O)n3C)n2CCCSc2nnnn2-c2ccccc2)CC1 | -51.2
12 | COc1ccc(CN2CCCCC2c2cccnc2)c(OC)c1C (centres unmarked) | 2.45
13 | Cc1ccc(NC(=O)C(=O)C2C(=O)Nc3ccccc32)cc1 (centres unmarked) | 3.99
14 | Cc1cc(C)c(NC(=O)CN(C)C(=O)C2CC(=O)N(c3cccc4ccccc34)C2)c(C)c1 (centres unmarked) | -3.25
15 | Br.COc1ccc(OC)c(N2Cc3ccccc3C2=N)c1 | -41.3
16 | CCCn1nc(NC(=O)c2cccs2)c2cc3cc(OC)ccc3nc21 | -6.83
17 | O=C(O)CCC(=O)N1CCc2cc(S(=O)(=O)N(CCc3ccccc3)Cc3ccccc3)ccc21 | 56.3
18 | CCOc1ccc(C(C(=O)NC2CCCCC2)N(C(=O)c2ccccn2)c2cccnc2)cc1 (centres unmarked) | 7.4
19 | CC1CCCCN1C(=O)CCc1nnc(Cc2c[nH]c3ccccc23)o1 (centres unmarked) | 4.94
20 | CCN1C(=O)[C@H]2[C@@H](c3ccc(-c4cccc(Cl)c4)cc3)N3CCCC[C@@]3(C(=O)OC)[C@H]2C1=O.O=C(O)C(F)(F)F | 1.51
21 | C[C@@H]1CC[C@@]2(NC1)O[C@H]1C[C@H]3[C@@H]4CC=C5C[C@@H](O)CC[C@]5(C)[C@H]4CC[C@]3(C)[C@H]1[C@@H]2C | 18.4
22 | Cc1ccc(Cl)cc1NS(=O)(=O)c1ccc(-n2cccn2)cc1 | 1.75

Row | Structure (SMILES) | hERG current change (%, negative = inhibition) at 10uM [%]
23 | CC(=O)NS(=O)(=O)c1ccc(NC(=S)NC(=O)COc2ccccc2C)cc1 | -1.41
24 | Cc1ccc(S(=O)(=O)N2CCC(C(=O)NCCc3ccc(S(N)(=O)=O)cc3)CC2)cc1 | 7.78
25 | CCC(=O)N1CCc2cc(Br)cc(S(=O)(=O)CCC(=O)NCCOC)c21 | 20.7
26 | COc1ccc(C(=O)Nc2c(N)nc(SCC(=O)N3CCC(C)CC3)[nH]c2=O)cc1 | 20.6
27 | CCN(C(=O)CSc1nc2ccccc2c(=O)n1CCOC)C1CCS(=O)(=O)C1 (centres unmarked) | -61.2
28 | C=C1c2cc(OC)ccc2NC(=O)N1CC | -5.01
29 | CC(OC(=O)CNC(=O)c1ccc2ccccc2c1)C(=O)NC1CCCCC1C (centres unmarked) | -4.63
30 | CCCOc1ccc2nc(C)c(CCC)c(SC(=N)N)c2c1.Cl | 11.1
31 | O=C(COc1ccc(Br)cc1)Nc1ccc(S(=O)(=O)Nc2ccccn2)cc1 | -5.28
32 | Cc1ccc(NC(=O)c2cccc(S(=O)(=O)NCc3ccccc3)c2)nc1 | -50.7
33 | Cc1c(NS(=O)(=O)c2ccc3[nH]c(=O)[nH]c3c2)c(=O)n(-c2ccccc2)n1C | 0.00908
34 | CN(C)c1ccc(CNC(=O)CN2C(=O)COc3ccc(S(=O)(=O)N4CCCC4)cc32)cc1 | 9.58
35 | CCOC(=O)c1[nH]c2ccc(Cl)cc2c1NC(=O)/C=C/c1ccc2c(c1)OCO2 | -1.13
36 | CCn1c2ccccc2c2cc(/C=N/n3c(C)nnc3C)ccc21 | -25
37 | Cc1cccc(C(=O)N2CCC(=O)N(C(COCc3cccc(C(F)(F)F)c3)Cc3ccccc3)CC2)c1 (centres unmarked) | -18.2
38 | CCN1CCc2c(C#N)c(NCc3ccccc3)nc(NCCO)c2C1 | -51.6
39 | O=C(NCC(c1cccs1)N1CCOCC1)c1cn(-c2ccccc2)nc1-c1ccccc1 (centres unmarked) | -25
40 | CCOc1ccc(NC(=O)Cn2nnc(C(=O)NCCc3ccc(OC)c(OC)c3)c2N)cc1 | -4.9
41 | CC(=O)/C(N=Nc1cc(C)ccc1O)=C(\C)O | 11.7
42 | CC(C)c1ccccc1NC(=O)COC(=O)Cc1cccc(C(F)(F)F)c1 | 17.2
43 | CCN(C=NC1=NN(c2cccc(C(F)(F)F)c2)CC1)CC | -35.8
44 | Cc1cccc(NC(=S)N2CCC(NC(=O)c3ccco3)CC2)c1 | -18.2

Row | Structure (SMILES) | hERG current change (%, negative = inhibition) at 10uM [%]
45 | O=[N+]([O-])c1ccccc1OCCCN1CCOCC1 | 7.89
46 | O=C(CCC(=O)N1CCN(c2cccc(Cl)c2)CC1)c1cccs1 | -56.8
47 | O=c1[nH]c2cccnc2n1Cc1ccco1 | -0.176
48 | O=C(OCc1nc2ccccc2s1)c1ccc(Br)o1 | 12
49 | CC1CCN(c2ccc(C(=O)O)cc2)CC1 | 2.86
50 | Cc1ccc(-n2ncc(C(=O)NCC3CCN(C4CCCC4)C3)c2C2CCN(C(=O)OC(C)(C)C)CC2)cc1 (centres unmarked) | -20.4
51 | CC1CC(C)CN(S(=O)(=O)CCNC(=O)c2ccc3c(c2)OCO3)C1 (centres unmarked) | 9.64
52 | COC(=O)c1ccccc1NC(=O)c1ccccc1OC | -23.1
53 | CCCCCCn1c(CN2CCC(C)CC2)nc2c1c(=O)n(C)c(=O)n2C | -8.75
54 | CCN(CC(=O)Nc1c(F)cccc1F)C(=O)CCc1c[nH]c2ccccc12 | 0.268
55 | CCOc1ccc(S(=O)(=O)Nc2ccc(S(=O)(=O)N3CCCCC3)cc2)cc1 | -18.6
56 | CCOC(=O)c1cnc(-c2ccccc2)nc1Oc1ccc(Cl)cc1 | 2.31
57 | Cc1ccc[n+](CC(=O)Nc2cc(C(F)(F)F)ccc2Cl)c1.[Cl-] | -1.85
58 | COc1ccccc1-c1sc2cc3c(cc2c1C#CCO)OCO3 | 12
59 | Cc1ccccc1OCC(=O)NNC(=O)c1ccc(-c2ccccc2)cc1 | -8.56
60 | CCCC(C)NC(=O)COC(=O)c1ccccc1SCC(=O)NC(C)CCC (centres unmarked) | -6.47
61 | O=C(CCC(=O)Nc1nnc(C2CCCCC2)s1)Nc1ccc(F)cc1 | -11.3
62 | O=C(Nc1ccc(Br)cc1)NC1CCCCCCC1 | 2.29
63 | Cc1ccc(NC(=O)CCC(=O)N/N=C/c2ccccc2O)cc1 | 16.9
64 | COc1ccc(Cc2c(O)nc(SC)n(C(C)=O)c2=O)cc1 | 15.6
65 | CC1(C)CC(CCN)(Cc2ccccc2Cl)CCO1 (centres unmarked) | -1.1
66 | O=C(Nc1cccc(NC(=O)c2cccc([N+](=O)[O-])c2)n1)c1cccc([N+](=O)[O-])c1 | -14

Row | Structure (SMILES) | hERG current change (%, negative = inhibition) at 10uM [%]
67 | CCN(CC(=O)Nc1ccc(NC(C)=O)cc1)C(=O)C1CCCN(C(=O)c2ccc(Cl)cc2)C1 (centres unmarked) | -3.75
68 | CCCCCC(=O)N1CC2(CC)CN(C(=O)CCCCC)CC(CC)(C1)C2=O | -21.6
69 | CC(=O)c1ccccc1NS(=O)(=O)c1ccc2c(c1)CC(=O)N2 | 2.66
70 | CC(C(=O)Nc1ccc(C#N)cc1)N1CCN(C(=O)C2CC2)CC1 (centres unmarked) | -61.2
71 | C=CCN(C(=O)c1csnn1)C(C(=O)NCc1ccccc1)c1ccccc1F (centres unmarked) | 0.909
72 | O=S(=O)(c1ccc2oc(=S)[nH]c2c1)N1CCCCC1 | 28.3
73 | Clc1cccc(Cc2ccc(Cl)nn2)c1 | -3.46
74 | CC(C)(C)C(=O)Nc1nc2c(c(=O)[nH]1)CCCC2 | 7.35
75 | O=S(=O)(Nc1cc(Cl)ccc1-n1cncn1)c1cc(Br)ccc1Br | 3.07
76 | CCOc1ccc(C(=O)Nc2ccc3c(c2)OCO3)cc1OCC | 5.35
77 | COc1ccccc1Oc1nc2c(c(=O)n(Cc3ccccc3F)c(=O)n2C)n1C | -30
78 | COc1cc(C#N)c(NC(=O)CN2CCN(CCO)CC2)cc1OC | 1.4
79 | CCc1ccc2c(c1)C(c1ccc([N+](=O)[O-])cc1)=NNC(c1ccc(F)cc1)=N2 | -7.54
80 | Cc1cc(C)nc(/N=C(\N)C2=C(O)CC(C)(C)CC2=O)n1 | 1.08
81 | Cc1ccc(S(=O)(=O)NC(=O)NC(C)c2ccc(F)cc2)cc1 (centres unmarked) | 20.6
82 | CCC/C(=N\NC(=O)c1csc(C)c1C)c1cccs1 | -5.57
83 | O=P(Cc1cc(Br)cc(Br)c1OCCO)(c1ccccc1)c1ccccc1 | -0.447
84 | COc1cccc(CNC(=O)C2Cc3ccccc3CN2C(C)=O)c1 (centres unmarked) | 2.81
85 | O=c1c2c(nc3c(-c4ccccc4)c[nH]n13)CCCC2 | -20
86 | COc1cc(OC)cc(C(=O)NCC(=O)OCC(=O)Nc2ncc(Cl)cc2Cl)c1 | -3.71
